{"source": "PubChem BioAssay AID504339", "about": "(National Center for Advancing Translational Sciences (NCATS), 2011)", "note": "In all, about 390,000 compounds went through this assay and about 17,000 (4.4%) were called active. Inconclusive results, whose numbers are uncertain, are shown with a selection of clear calls. Calls follow the shape of the dose curve; as a rule, active = well fitted inhibition curve with a large enough effect; inconclusive = small, poorly fitted or top-dose-only effect; inactive = no such curve, though single readings can be large or run the other way. Where the call is inconclusive, the potency comes from a doubtful curve fit. % is scaled to controls: 0 for no effect and ±100 for the full control effect; potency is read from the fitted curve at half-maximal effect; tags tell the direction and shape of the fitted curve.", "data": [{"target": "Lysine-specific demethylase 4A (Homo sapiens) (UniProt O75164)", "sequence (O75164 whole entry, looked up, the tested form may be a part)": "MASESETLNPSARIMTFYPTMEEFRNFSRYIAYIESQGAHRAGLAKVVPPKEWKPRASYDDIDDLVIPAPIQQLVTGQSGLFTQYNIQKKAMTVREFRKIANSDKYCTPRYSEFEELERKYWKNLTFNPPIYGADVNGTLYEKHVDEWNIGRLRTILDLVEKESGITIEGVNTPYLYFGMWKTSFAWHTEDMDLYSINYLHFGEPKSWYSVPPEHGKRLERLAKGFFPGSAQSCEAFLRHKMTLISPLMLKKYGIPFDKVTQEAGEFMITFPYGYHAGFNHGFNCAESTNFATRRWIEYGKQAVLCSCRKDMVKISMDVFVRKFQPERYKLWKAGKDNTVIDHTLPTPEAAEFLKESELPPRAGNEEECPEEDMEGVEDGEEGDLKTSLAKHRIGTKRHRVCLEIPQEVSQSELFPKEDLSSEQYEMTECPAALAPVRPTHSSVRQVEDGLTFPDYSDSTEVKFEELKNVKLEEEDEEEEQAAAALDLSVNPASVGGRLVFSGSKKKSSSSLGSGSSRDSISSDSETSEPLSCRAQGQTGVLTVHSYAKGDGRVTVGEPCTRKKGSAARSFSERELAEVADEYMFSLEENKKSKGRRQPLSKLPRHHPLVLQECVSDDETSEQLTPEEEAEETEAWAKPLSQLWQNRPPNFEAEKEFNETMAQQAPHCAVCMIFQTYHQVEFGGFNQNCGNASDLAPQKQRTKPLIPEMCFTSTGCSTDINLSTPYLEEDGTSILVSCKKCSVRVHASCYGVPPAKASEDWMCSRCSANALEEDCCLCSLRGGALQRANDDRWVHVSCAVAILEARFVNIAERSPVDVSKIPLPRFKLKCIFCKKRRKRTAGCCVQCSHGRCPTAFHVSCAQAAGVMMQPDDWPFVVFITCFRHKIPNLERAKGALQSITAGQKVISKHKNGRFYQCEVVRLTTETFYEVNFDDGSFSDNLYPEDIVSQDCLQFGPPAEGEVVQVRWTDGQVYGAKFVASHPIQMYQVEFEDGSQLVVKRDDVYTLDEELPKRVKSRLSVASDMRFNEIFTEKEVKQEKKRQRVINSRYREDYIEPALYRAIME", "experiment": "qHTS Assay for Inhibitors of JMJD2A-Tudor Domain; also: nearly all actives have a fitted effect of over 50% in size", "details": "AlphaScreen JMJD2A-Tudor / H3K4me3 peptide binding; activity change, negative = inhibition: at 114 µM (top of the series)", "values": [{"smiles": "CC[n+]1ccccc1/C=C1\\Sc2ccc(C)cc2N1C", "Potency": "inconclusive: 39.8 µM [inhibitor, single point]"}, {"smiles": "O=C(CSC1=N/C(=C/c2ccco2)C(=O)N1c1ccc(OC(F)F)cc1)NC1CCS(=O)(=O)C1", "note": "(stereo not drawn)", "Potency": "inconclusive: 63.1 µM [inhibitor, partial curve]"}, {"smiles": "O=c1c2ccccc2c(-c2n[nH]c(=S)o2)nn1Cc1ccccc1", "Potency": "inconclusive: 79.4 µM [inhibitor, partial curve]"}, {"smiles": "CN(C)c1ccc(C(=O)OCC(=O)Nc2ccc(S(N)(=O)=O)cc2)cc1", "Potency": "active: 56.2 µM"}, {"smiles": "CC(/C=C/c1ccc(N(C)C)cc1)=N\\N=C(/N)SC1CC(=O)N(c2ccc(C(=O)O)cc2)C1=O", "note": "(stereo not drawn)", "Potency": "active: 31.6 µM"}, {"smiles": "Cc1ccc(S(=O)(=O)N2CCOCC2)cc1NC(=O)COC(=O)c1ccccc1OCc1c(C)noc1C", "activity change, negative = inhibition": "inactive: -15.9%"}, {"smiles": "CCn1cc(C(=O)OCC(=O)N2C(C)CCCC2C)c(=O)c2ccc(C)nc21", "note": "(stereo not drawn)", "Potency": "inconclusive: 35.5 µM [inhibitor, partial curve]"}, {"smiles": "COc1ccccc1N1CCN(CCCCOc2cccc3ccccc23)CC1", "Potency": "inconclusive: 39.8 µM [inhibitor, partial curve]"}, {"smiles": "Cc1ccc(C(=O)NC(=S)NNC(=O)COc2ccc([N+](=O)[O-])cc2)cc1", "Potency": "active: 25.1 µM"}, {"smiles": "COC(=O)[C@@]1(Cc2ccccc2)[C@H]2C(=O)N(Cc3ccccc3)C(=O)[C@H]2[C@H]2CN=C(SCc3ccccc3)N21", "Potency": "inconclusive: 56.2 µM [inhibitor, partial curve]"}, {"smiles": "COc1cc2c(c(OC)c1CC=C(C)C)C[C@H](c1ccc(O)cc1O)CO2", "Potency": "active: 56.2 µM"}, {"smiles": "CCCCNC(=O)NS(=O)(=O)c1ccc(C(=O)OC)o1", "Potency": "inconclusive: 44.7 µM [inhibitor, partial curve]"}, {"smiles": "C=CCNC(=O)c1ccc(C2SCC(=O)N2Cc2ccco2)cc1", "note": "(stereo not drawn)", "activity change, negative = inhibition": "inconclusive: -40.6% [inhibitor]"}, {"smiles": "CCOC(=O)COc1cc2c(C(=O)OCC)c(C)oc2cc1Br", "activity change, negative = inhibition": "inactive: 25.2%"}, {"smiles": "C/C(=C\\C(=O)c1ccccc1)NNC(=O)c1ccc(Cl)cc1", "Potency": "inconclusive: 56.2 µM [inhibitor, partial curve]"}, {"smiles": "CC(C)NC(=O)NC(=O)CSc1nnc(COc2ccccc2F)n1C(C)C1CC2CCC1C2", "note": "(stereo not drawn)", "Potency": "inconclusive: 35.5 µM [inhibitor, full curve, poor fit]"}, {"smiles": "COc1ccc(C)cc1S(=O)(=O)N1CCN(S(=O)(=O)c2cc(C)ccc2OC)C(C)C1", "note": "(stereo not drawn)", "Potency": "inconclusive: 2.82 µM [inhibitor, full curve, poor fit]"}, {"smiles": "NNc1nc(Nc2ccc([N+](=O)[O-])cc2)nc(N2CCCCCC2)n1", "Potency": "active: 56.2 µM"}]}]}
